In PMC4491109, “Synthesis and anticonvulsant activity of new N-phenyl-2-(4-phenylpiperazin-1-yl)acetamide derivatives” (Medicinal Chemistry Research, 2015):

Experiments:
[1] = biological target: voltage-sensitive sodium channel (site 2); design: method as in Brown, 1986; conditions: rat cerebral cortex, experimental conditions of Cerep assay, ref Brown, 1986; read-out: Kd of the radioligand; cited from earlier work
[2] = tested on: voltage-sensitive sodium channel (site 2); format: binding, rat

[^3H] Batrachotoxin
Kd [1]: 91 nM

Cl.O=C(CN1CCN(c2cccc(C(F)(F)F)c2)CC1)Nc1cccc(C(F)(F)F)c1 [Compound 20, N-[3-(Trifluoromethyl)phenyl]-2-[4-[3-(trifluoromethyl)phenyl]piperazin-1-yl]acetamide monohydrochloride]
% Inhibition of control specific binding, 1 μM ([2]; [3H]BTX, synaptoneurosomal preparations from rat cerebral cortex, 1 μM): 4.2% | % Inhibition of control specific binding, 10 μM ([2]; [3H]BTX, synaptoneurosomal preparations from rat cerebral cortex, 10 μM): 7.5% | % Inhibition of control specific binding, 100 μM ([2]; [3H]BTX, synaptoneurosomal preparations from rat cerebral cortex, 100 μM): 10.8% | % Inhibition of control specific binding, 500 μM ([2]; [3H]BTX, synaptoneurosomal preparations from rat cerebral cortex, 500 μM): 46.7% | binding to the neuronal voltage-sensitive sodium channel (in words) ([2]; at the highest concentration, 500 μM, 25-50 % inhibition = weak to moderate effects): moderate binder
